Measurements: PubChem BioAssay AID720569 (National Center for Advancing Translational Sciences (NCATS), 2013)
Inconclusive results, whose numbers are uncertain, are shown with a selection of clear calls. Potencies of inconclusive entries are doubtful fits and often do not repeat. Activity calls are given as the source filed them. Calls follow the shape of the dose curve; as a rule, active = well fitted inhibition curve with a large enough effect; inconclusive = small, poorly fitted or top-dose-only effect; inactive = no such curve, though single readings can be large or run the other way.

tested on: pyruvate kinase (Trypanosoma brucei); assay: qHTS of Trypanosoma Brucei Inhibitors: Confirmatory Assay for Cherry-picked Compounds; conditions: recombinant TbPYK, Kinase-Glo ATP luminescence; activity change, negative = inhibition: at 76.9 µM (top of the series); also: nearly all actives have a fitted effect of over 70% in size
Source text: Members of the Trypanosomatidae family of parasitic protozoans cause a spectrum of diseases throughout the tropical and subtropical world. Sleeping sickness, caused by two subspecies of Trypanosoma brucei, is endemic to areas of sub-Saharan Africa, while Chagas' disease, a manifestation of Trypanosoma cruzi infection, is prevalent throughout Central and South America. In addition, many species of Leishmania are responsible for a range of cutaneous and visceral diseases, causing ulcers, destructive lesions and kalaazar, a lethal infection of the viscera. These diseases cause severe public health and economic burdens on populations that are often already caught in a tragic cycle of poverty, poor nutrition and disease. Collectively, parasites of the trypanosomatid family infect 30 million people worldwide (~500 million live in endemic areas), and account for ~130K deaths annually. Existing treatments have developed little in the past 50 years, and suffer from toxicity, poor efficacy and resistance; the goal of this project is to develop lead drugs that will be suitable for entry into pre-clinical trials. […] Glycolysis in axenically cultured T. cruzi, representing the intracellular pathogenic stage, is also essential for these parasites. {Engel, 1987} This project aims to discover and optimize selective inhibitors of the glycolytic enzyme pyruvate kinase (PYK) from Trypanosoma brucei, the parasite that causes sleeping sickness. […] Trypanosomatid PYKs show significant differences from their human counterparts including only 47-50% sequence identity and different allosteric and activation properties.{Callens, 1992} To this end, a qHTS was done against the MLSMR to discover inhibitors. NIH Molecular Libraries Probe Production Network [MLPCN] NIH Chemical Genomics Center [NCGC] Grant: MH095452 PI Name: Malcolm Walkinshaw, University of Edinburgh
Two uL of TbPYK/substrate buffer (columns 1-3, 5-48) are dispensed into Greiner white solid bottom 1536-well assay plates; column 4 receives only TEA buffer as 0x TbPYK controls. Compounds are then transferred via Kalypsys pin tool equipped with 1536-pin array (10 nL slotted pins, V&P Scientific, San Diego, CA). Following addition of compound, 2 uL of ADP (130 uM final concentration, all columns) is added to initiate the reaction. The plates are then incubated at room temperature for 45 minutes. Kinase-Glo Plus reagent is added (3 uL) and plates incubated for 10 minutes, before being transferred to a ViewLux high-throughput CCD imager (PerkinElmer) wherein single end-point measurements of luminescence are acquired using a clear filter. All reagents are diluted in an assay buffer consisting of 50 mM TEA (pH 7.2), 100 mM KCl, 10 mM MgCl2, 0.05% BSA and 0.01% Tween-20. All screening operations will be performed on a fully integrated robotic system (Kalypsys, San Diego, CA) containing one RX-130 and two RX-90 anthropomorphic robotic arms (Staeubli, Duncan, SC). Library plates will be screened starting from the lowest and proceeding to the highest concentration. Vehicle-only plates, with DMSO being pin-transferred to columns 5-48, will be inserted uniformly at the beginning and the end of each library in order to monitor and record any shifts in the background, which can be affected by reagent dispensers or loss in enzyme activity over time. Screening data will be corrected, normalized, and concentration-effect relationships will be derived by using publicly-available curve fitting algorithms developed in-house (http://ncgc.nih.gov/pub/openhts).
% is scaled to controls: 0 for no effect and ±100 for the full control effect; potency is read from the fitted curve at half-maximal effect; tags tell the direction and shape of the fitted curve.

Row | SMILES | Potency | activity change, negative = inhibition
1 | N#Cc1c(SCC(N)=O)nc2c(c1-c1ccncc1)CCCC2 | active: 3.98 µM | 
2 | CC(=O)/C(=N\Nc1ccc(Cl)cc1Cl)Sc1nnc(-c2ccccc2)n1-c1ccccc1 | inconclusive: 17.8 µM [inhibitor, partial curve] | 
3 | O=C1/C(=C\c2ccncc2)CCc2ccccc21 | inconclusive: 39.8 µM [inhibitor, partial curve, poor fit] | 
4 | CC(C)CC1CC(=O)OC1(C)C(=O)CSc1nc2ccccc2s1 (stereo not given) | inconclusive: 25.1 µM [inhibitor, single point] | 
5 | CN(C)c1cccc2c(C=C(C#N)C#N)ccc(N(C)C)c12 | inconclusive: 14.1 µM [inhibitor, partial curve] | 
6 | O=C(CCSCCC(=O)NCc1ccco1)NCc1ccco1 | inconclusive: 22.4 µM [inhibitor, partial curve] | 
7 | Cc1ccc2c(c1)sc[n+]2Cc1ccccc1 |  | inactive: -20.1%
8 | CN(C)c1ccc(/C=C/c2cc[n+](C)c3ccccc23)cc1 | inconclusive: 35.5 µM [inhibitor, partial curve, poor fit] | 
9 | CCOc1ccc(-c2c(=O)n(O)c3ccccc3[n+]2[O-])cc1 | inconclusive: 50.1 µM [inhibitor, single point] | 
10 | O=C(O)CC(C(=O)O)N1C(=O)/C(=C/C=C/c2ccco2)SC1=S (stereo not given) | inconclusive: 3.16 µM [inhibitor, partial curve] | 
11 | Cc1ccc(-c2cc(C(=O)Nc3cccnc3)c3ccccc3n2)o1 | inconclusive: 31.6 µM [inhibitor, single point] | 
12 | COc1cccc(Nc2ccc(N3CCCCC3)cc2)c1OC | inconclusive: 11.2 µM [inhibitor, partial curve] | 
13 | O=C(O)/C=C/C(=O)NNC(=O)c1cc(-c2ccccc2)n[nH]1 | inconclusive: 31.6 µM [inhibitor, single point] | 
14 | O=C(CSc1cccc2cccnc12)N1CCCC1 | inconclusive: 28.2 µM [inhibitor, partial curve, poor fit] | 
15 | O=C1S/C(=C\c2ccc(N3CCOCC3)o2)C(=O)N1c1ccccc1 | inconclusive: 39.8 µM [inhibitor, single point] | 
16 | Cc1nnc(N2CCN(c3ccccc3)CC2)[nH]c1=O |  | inactive: 3.23%
17 | CN1CCN(c2nc(-c3ccc(Cl)s3)cs2)CC1 | inconclusive: 10 µM [inhibitor, partial curve] | 
18 | COC(=O)c1ccc2c(=O)n(Cc3ccc(C(=O)NCCCN4CCC(C)CC4)cc3)c(=S)[nH]c2c1 | active: 17.8 µM | 
19 | N#C/C(=C\c1ccc(C(=O)O)cc1)c1ccccn1 | inconclusive: 25.1 µM [inhibitor, single point] | 
20 | CC1(C(=O)NCCC(F)(F)F)Cc2c(-c3cccc(C(N)=O)c3)ccnc2O1 (stereo not given) |  | inactive: 5.88%

Row | SMILES | Potency | activity change, negative = inhibition
21 | CCOC(=O)c1ccc(N2CSC3=C(C#N)C(c4cccs4)CC(=O)N3C2)cc1 (stereo not given) | inconclusive: 31.6 µM [inhibitor, single point] | 
22 | CCN1/C(=C2\C(=O)N(C)C(=S)N2C)C=Cc2ccccc21 | inconclusive: 35.5 µM [inhibitor, partial curve, poor fit] | 
23 | N#C/C(=C/c1ccc(N2CCOCC2)o1)c1ccc(Cl)cc1 | inconclusive: 44.7 µM [inhibitor, single point] | 
24 | Cc1cccc(N2C(=O)C=CC2=O)c1 | inconclusive: 31.6 µM [inhibitor, single point] | 
25 | COc1ccc(OC)c(NC(=O)CSc2ccc(-c3ccco3)nn2)c1 | active: 20 µM | 
26 | CSc1ccccc1OCc1cc(C(=O)N(C)Cc2ccc(C)o2)no1 | inconclusive: 25.1 µM [inhibitor, partial curve] | 
27 | Nc1nc2ccc([N+](=O)[O-])c(N)c2s1 | inconclusive: 12.6 µM [inhibitor, partial curve] | 
28 | CC(=O)SC(C[N+](=O)[O-])c1cn(C(C)=O)c2ccccc12 (stereo not given) | inconclusive: 50.1 µM [inhibitor, single point] | 
29 | O=C1CSC(=S)N1N=Cc1c(O)ccc2ccccc12 | inconclusive: 28.2 µM [inhibitor, partial curve, poor fit] | 
30 | Cc1ccc(S(=O)(=O)n2c([N+](=O)[O-])cnc2C)c(C)c1C |  | inactive: 3.8%
31 | COc1ccc(C2=CC(=O)C[C@H](c3ccc(OC)c(OC)c3)C2)cn1 |  | inactive: 9.39%
32 | CCOC(=O)C1C(=O)CC(C)(O)C(C(=O)OCC)C1c1ccc(Br)o1 (stereo not given) | inconclusive: 28.2 µM [inhibitor, single point] | 
33 | S=C(c1ccc(-c2ccc(Cl)cc2Cl)o1)N1CCCC1 | inconclusive: 28.2 µM [inhibitor, single point] | 
34 | O=C1CCCC2=C1C(c1ccc(O)c(O)c1)c1c(ccc3ncccc13)N2 (stereo not given) | active: 0.112 µM | 
35 | O=C1NC(=S)CN1c1ccccc1 | inconclusive: 0.178 µM [inhibitor, partial curve, poor fit] | 
36 | Cc1ccc(NC2=C(NC(=O)c3ccccc3)C(=O)c3ccccc3C2=O)cc1Cl | inconclusive: 35.5 µM [inhibitor, single point] | 
37 | Cc1ccc(-c2cc(C(=O)N3CCOCC3)c3ccccc3n2)o1 | inconclusive: 28.2 µM [inhibitor, single point] | 
38 | COc1ccc(-c2nnc3ccc(SCC(=O)N4CCN(c5ccccc5)CC4)nn23)cc1 | inconclusive: 28.2 µM [inhibitor, partial curve] | 
39 | O=S(=O)(Nc1cc(Sc2cccc3cccnc23)c(O)c2ccccc12)c1ccc(F)cc1 | active: 1.41 µM | 
40 | c1ccc(-c2nc(-c3ccco3)cs2)nc1 |  | inactive: -25.8%
